Reference: the supplement of paper PMC12217912
Some of the results follow. The full chains were built here from the parent and the listed change. Values near 0.05 are background.

B1: TEV protease; numbered along this chain (parent)
chain: MGESLFKGPRDYNPISSSICHLTNESDGHTTSLYGIGFGPFIITNKHLFRRNNGTLVVQSLHGVFKVKDTTTLQQHLVDGRDMIIIRMPKDFPPFPQKLKFREPQREERICLVTTNFQTKSMSSMVSDTSCTFPSGDGIFWKHWIQTKDGQCGSPLVSTRDGFIVGIHSASNFTNTNNYFTSVPKNFMELLTNQEAQQWVSGWRLNADSVLWGGHKVFMVKPEEPFQPVKEATQL

Variants of: B1
Assay: raw area under fraction-flipped curve 0-4 h after induction (AUC4h, not background-subtracted), DNA-recorder readout of cleavage of the substrate (dimensionless); higher = more cleavage of the substrate by the protease variant
Conditions: temperature: 34 °C; time window: 0-4 h after rhamnose induction
Protocol: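 In vivo DNA recorder in E. coli TOP10(DE3) ΔrhaA at 34 °C. Each TEVp single-site mutant (parent TEVp 0) is paired with a single-site variant of the 7-mer TEVs (canonical ENLYFQ|S). The substrate sits between flexible linkers in a Bxb1-sfGFP-TEVs-SsrA fusion, so cleavage stabilises Bxb1 and speeds flipping of a recombination array, read by NGS. The value is the raw area under the fraction-flipped curve over 0-4 h after rhamnose induction (AUC4h), with ≥20 reads per time point. It is not background-subtracted; inactive controls average about 0.047.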
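Also: Bxb1 expression induced with 0.2% (w/v) L-rhamnose at OD600 near 0.5, cultures sampled hourly, flipped fraction per protease–substrate barcode pair counted by paired-end Illumina sequencing.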

Variant | area with substrate ENAYFQS | area with substrate ENDYFQS | area with substrate ENEYFQS | area with substrate ENFYFQS | area with substrate ENGYFQS | area with substrate ENHYFQS | area with substrate ENIYFQS | area with substrate ENNYFQS | area with substrate ENQYFQS | area with substrate ENRYFQS | area with substrate ENSYFQS | area with substrate ENVYFQS | area with substrate ENWYFQS | area with substrate ENCYFQS | area with substrate ENKYFQS | area with substrate ENMYFQS | area with substrate ENPYFQS | area with substrate ENYYFQS | area with substrate ENTYFQS
F65H | 0.0604 | 0.0568 | 0.0777 | 0.0564 | 0.0551 | 0.0425 | 0.0795 | 0.0448 | 0.0601 | 0.0542 | 0.123 | 0.0808 | 0.0059 |  |  |  |  |  | 
V67I | 0.0466 | 0.061 |  |  |  |  |  |  | 0.0566 | 0.0561 | 0.0431 |  | 0.002 |  |  |  |  |  | 
V67P | 0.0421 | 0.0496 | 0.0361 | 0.0506 |  | 0.0415 | 0.0591 | 0.0432 | 0.0414 | 0.0376 | 0.0456 | 0.0512 | 0.0042 | 0.0504 | 0.0533 | 0.0244 | 0.0792 |  | 
V67N | 0.0633 | 0.0497 |  | 0.0096 | 0.0433 |  |  |  | 0.0632 | 0.0534 | 0.0509 |  |  | 0.0507 |  | 0.0677 |  | 0.059 | 
V67K | 0.0608 | 0.0571 |  | 0.05 | 0.066 | 0.0626 |  | 0.0609 | 0.0549 | 0.0166 | 0.0579 |  | 0.0641 |  |  | 0.0502 | 0.0507 |  | 0.0479
V67F | 0.0546 | 0.0699 | 0.0668 | 0.0382 | 0.0638 | 0.0614 |  | 0.0393 | 0.0557 |  | 0.0474 | 0.0905 |  |  |  | 0.0713 | 0.0704 |  | 
L73C | 0.0581 |  | 0.0602 | 0.071 |  | 0.0693 |  | 0.0587 | 0.0746 | 0.0652 | 0.0587 |  |  | 0.0609 | 0.0738 | 0.07 |  | 0.0446 | 0.0626
L73D | 0.0595 | 0.0483 | 0.0435 | 0.0516 | 0.0434 | 0.0487 |  |  | 0.0553 | 0.0505 |  | 0.0453 |  | 0.0365 | 0.0409 |  |  |  | 0.0523
L73H | 0.0635 | 0.0515 | 0.0282 |  |  | 0.0469 |  |  | 0.0522 | 0.0435 | 0.0436 | 0.0694 |  |  |  |  | 0.0546 | 0.0284 | 0.0427
I43Y | 0.0498 | 0.0459 | 0.0562 |  | 0.0496 | 0.0541 |  | 0.0494 | 0.0431 | 0.0393 |  |  |  | 0.0709 | 0.0511 |  | 0.0572 | 0.0679 | 0.0545
K68G | 0.0677 | 0.0551 | 0.0504 | 0.0554 | 0.059 | 0.0523 |  | 0.0606 | 0.0617 | 0.0445 | 0.0706 | 0.0773 | 0.0634 | 0.0619 |  | 0.0724 | 0.0563 |  | 
K68W | 0.0468 |  | 0.059 | 0.064 |  |  | 0.0994 | 0.0724 | 0.0638 | 0.0485 | 0.0518 | 0.0773 |  | 0.0646 |  | 0.0789 | 0.0667 | 0.0612 | 
K68H | 0.0641 |  | 0.0525 | 0.0593 | 0.0484 |  | 0.12 | 0.0799 | 0.0786 | 0.033 | 0.0595 | 0.0684 |  |  |  |  |  | 0.0409 | 0.0669
K68D | 0.0678 |  | 0.0681 |  | 0.0698 | 0.0913 |  | 0.0582 | 0.0665 | 0.0629 |  |  |  |  | 0.0405 |  | 0.0421 |  | 0.0736
